Data as given in the supplement of paper PMC11417369.
Some of the results follow.

system: PF3D7_0420300 AP2 domain 1 (GST-tagged); assay: gcPBM binding intensity (ln(normalized median fluorescence intensity)); higher = stronger DNA binding
In short: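 After 1 h on an Agilent 4 × 180k array of primer-extended double-stranded 36-bp intergenic genomic probes and negative controls, bound GST-tagged P. falciparum DNA-binding domains were detected with Alexa488 anti-GST antibody and scanned at 488 nm. The domains had been expressed in E. coli, and binding took place in 1× PBS with 1% milk, 0.2 mg/ml BSA, 0.5% salmon testes DNA and 0.03% Triton X-100. Binding intensity is the highest Masliner-normalised natural-log median intensity across replicate spots of either probe orientation.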

Row | Sequence | gcPBM binding intensity (ln)
1 | AGGAAAAAAGAAAAAACACACATAAATATTTATATA [CACACA_site7446] | 9.42
2 | TATACATCATTTTTCAACAACAAAAAAAAAAAAAAT [CACACA_negctrl_site1185] | 9.11
3 | ACGTAAAATAGGGACGCATGCACAAATATTTTTAAA [TGCATGCA_site336] | 9.28
4 | ATATATATAAATACAACACACATGTAATATATAAAT [CACACA_site5766] | 9.73
5 | TAATATCATTTATGGGGTACCTCCTATTCTTATTTA [XGTACX_site1839] | 9.19
6 | CGAACTGCACTTTTTAGTACTTAATAATTATTTTTT [XGTACX_site2446] | 9.35
7 | TCATATGTTAAATGATGTACATTTAATATAAATAAA [XGTACX_site900] | 9
8 | AAAAAAAACATCCTCACACATATATATATATATATA [CACACA_site5166] | 9.18
9 | AAATAAAATTATAATACATGCATACATACATATATA [TGCATGCA_site69] | 9.19
10 | TATAAATACATACGTACACACAAATATTAAAATATA [CACACA_site5129] | 9.67
11 | ATGTTACTCAGACACACACACATAAAAAAACAAAAA [CACACA_site3249] | 9.93
12 | TGTGTTAATATATGAAGTACACAATACACACTAATT [XGTACX_site5469] | 9.62
13 | TAAATTACATGAAATTGTACATGAATATTAAATATA [XGTACX_site3909] | 9.05
14 | TTCGTTATAATTGAATTTACAATATGCTTTATAATG [XGTACX_negctrl_site238] | 9.19
15 | ATATATACAAAGGATTAACACACATATTATTATATA [CACACA_site8563] | 9.55
16 | AAAATATTTATATTTACACACACATAATACATATAT [CACACA_site32] | 9.87
17 | GTGTACAGTTTTTGCACACATATAAATAAAAAAAAG [CACACA_site3599] | 9.45
18 | AATAAAGGAAATAAATAATTTATTTTGTAAAATATG [CACACA_negctrl_site97] | 9
19 | ATATATATGAATACATGTACGTATTTGTCTATGTAT [XGTACX_site8306] | 9.38
20 | CAATGTTAACATATTACACACATATGTATTTATAAT [CACACA_site5512] | 9.58
21 | GCATATATTATATATTTATTTATTTTTTTTTTTTAA [GTGCAC_negctrl_site193] | 9.13
22 | TTTATAAAATTATTTGCATGTAACAATTATAAATTG [TGCATGCA_site1026] | 8.94

Row | Sequence | gcPBM binding intensity (ln)
23 | TTTTTTTTTCTTTCTCTTTAAATATTAATTAAAAAA [GTGCAC_negctrl_site90] | 8.93
24 | AATGTGAAATATAAATGTACATAAATATATATATAT [XGTACX_site8710] | 9.54
25 | AAAATATAAATATATTGTACTGTTATATAATAAAAT [XGTACX_site2132] | 9.21
26 | TAACTATCATGTATTACACACAATATTTATTATAGA [CACACA_site7301] | 9.45
27 | TACATATTTTTTATGTGTACATATTTTTTATGTGTG [XGTACX_site444] | 9.15
28 | TTCTTTTTTCTTTATGGTACGTGTAATATATATCAA [XGTACX_site7960] | 9.47
29 | CCCAATAATTAAACAACACACATATATATATGTAAT [CACACA_site3084] | 9.66
30 | ATAAAATACAGATAAACACACATATAAACACCCATA [CACACA_site5381] | 9.92
31 | CTTTATTTTTTATACACACACAATATGTATAAATAT [CACACA_site7638] | 9.73
32 | ATAAATAAATACATATGTACATATATATATATATAT [XGTACX_site7145] | 9.17
33 | TCAGTTAATGTATATGTACACACGGGGTGTATATAT [CACACA_site9103] | 9.49
34 | ATATATATATTAAGGGGTACGTAAAAAATTGGGAAG [XGTACX_site7322] | 9.63
35 | AAATTATATCCCCTTTGTACTTACAGATCTTTATAC [XGTACX_site8163] | 9.38
36 | TAATGAGGAAAAAGTGTGTTAAGATTTTATAATTTA [GTGCAC_negctrl_site608] | 9.1
37 | TAAAAAAAAATAAATACATGCATATAATACATTATA [TGCATGCA_site518] | 9.16
38 | TATCATATAAATACATGTACATATTTGGAAAATAAT [XGTACX_site5373] | 9.3
39 | ATATATATATTAACAATACACACGTGTATACCTTAT [CACACA_site2217] | 9.49
40 | TGAACATGTTAAAATAAACACACAGCTAAGGTTTTT [CACACA_site7934] | 9.38
41 | CATATACACGAACACACACACATATATATATATATA [CACACA_site4437] | 9.84
42 | TAGTAAATAACAAAAGGAAAAATTAATGAGGCAAAA [TGCATGCA_negctrl_site526] | 9.62
43 | CATCATAGCATTCCTCGTACAAATATAAACATATCA [XGTACX_site2711] | 9.23
44 | ATGTTTTGTAAAATGATTAAATATTAAGATTCAATA [CACACA_negctrl_site1743] | 8.9

Row | Sequence | gcPBM binding intensity (ln)
45 | CTTAGAGTATTTAAATGTACACGTTTGTATATGTAT [XGTACX_site1767] | 9.22
46 | TATGTGGCACAAAAGGGTACATATAATTTATACAGG [XGTACX_site5499] | 9.43
47 | AAACAGAATGCATATACACACATACAAAAAAGTGCA [CACACA_site6591] | 9.8
48 | TGTGTACCGATATTAAGTTTAACGTTATAAAAATAT [CACACA_negctrl_site1547] | 9.28
49 | TTTCTAAACCGGTACAGTACATATAAAAATAGAATA [XGTACX_site6662] | 9.28
50 | AAAGGACAAAAAAATGCATGCCGTTAAATTATGTAC [TGCATGCA_site512] | 9.38
51 | AGTGTATTTTTATGTTGTACATGTAATATTTTTGAT [XGTACX_site541] | 9.49
52 | TATATAATATATTAATGTACGTTATATGTATTCCTT [XGTACX_site6140] | 9.42
53 | TACAGATATTCATATAAACACACATACAAATTATGT [CACACA_site7929] | 9.61
54 | TAATTCATCATATGCACACACAATACCAAAATGTGC [CACACA_site191] | 9.69
55 | CTTTTTTTTTAAATATCACACACATATAATATATTC [CACACA_site9222] | 9.42
56 | AAGCATTTCCATGGTGGTACTATACAAATAATAATT [XGTACX_site6193] | 9.27
57 | TATAAATAATGTTAAACACACATACCGATATATAAC [CACACA_site7306] | 9.66
58 | TCTCTCTTATAAAATACACACGAACAATCATATTAT [CACACA_site8065] | 9.43
59 | ATTTTTTTTTTTAAATGTACATAATATATATATAAT [XGTACX_site2686] | 9.16
60 | TATTAAACTAAATGTAGTACATACACAAACGTAATC [XGTACX_site4905] | 9.37
61 | TATTCGTGCAATAATGGTACACTTATAAATTATTCA [XGTACX_site1430] | 9.07
62 | AAAAAAATTTGTATCACACACGTATTATAAAAAAAT [CACACA_site4182] | 9.36
63 | CGAACATTATAAATGTCATTTTTTCCAACTTGATCT [GTGCAC_negctrl_site501] | 8.97
64 | GTACAAAAATAAATTGCACACATTTTAATAAAAAAA [CACACA_site2130] | 9.22
65 | TATATTTATTTATATACACACATATTTATAAATATA [CACACA_site7047] | 9.41
66 | AGATTTAAATATCATACACACTTTATCTATAATACA [CACACA_site6581] | 9.29

Row | Sequence | gcPBM binding intensity (ln)
67 | CAAAATTGACATGACGCACACAAGTGTAGATATTTT [CACACA_site1250] | 9.31
68 | TAGTTGTTTATAACACGTTGACAGAAATGTTATGTA [GTGCAC_negctrl_site624] | 9.11
69 | AGTCTGAATAAAATTACACACATATACATATATATA [CACACA_site1780] | 9.58
70 | AAAAAAAAAAAAAAAACACACAATAAAGTAAAATTT [CACACA_site135] | 9.49
71 | ATATATAAATTTTAGTGTACATTAATTTTTTTTTTT [XGTACX_site7782] | 9.25
72 | TAAATATATTAAGCTTGTACATGAAAAAAAAAAAAA [XGTACX_site3264] | 9
73 | TATGTATATAAATTAACACACATATGTGGTTAATAG [CACACA_site3143] | 9.24
74 | TACCTTTTTTGTTTTATGCACACCATATAACCAAGG [CACACA_site30] | 9.3
75 | TTTTTTTTTCCGTGTTGTACAAAAAAAAAGATTTTG [XGTACX_site3925] | 8.86
76 | AAGAAATATTTATACACACACACAAACATATAAATA [CACACA_site6981] | 10.2
77 | TATAACTATTCACAGACATGCACATAATAACAATAA [TGCATGCA_site207] | 9.34
78 | TAAAAAAAAAAAAAAGCATGCTATATTATATTACAC [TGCATGCA_site241] | 9.26
79 | TTTTTTTAAATATACACACACATTTATACCTATATA [CACACA_site7572] | 9.72
80 | TATAACTATAAAAGTAGTACACATATATATTATATA [XGTACX_site1391] | 9.18
81 | AATGGTTTAAAATACTGTACATATATATAAAAGTAA [XGTACX_site6187] | 9.31
82 | TTCCTAATTGACAACACACACAACAAAAAAGGGATT [CACACA_site1279] | 9.98
83 | CACTAAAATAAACACACACACACACCGATATATATA [CACACA_site9379] | 10.3
84 | TATATTTATATGATAACACACATAAATTATACATTT [CACACA_site1671] | 9.31
85 | TTAATTTTATTTTTTTGTACACATAAATATTATAAA [XGTACX_site4680] | 9.05
86 | AAAAAAAAAAAACACACACACACACTAATACATACA [CACACA_site8135] | 10.1
87 | TTTCCCTACCAAAAATGTACTTATAAGCGTTTTTAT [XGTACX_site739] | 9.18
88 | TTTTTAAATTATTGCACACAAAAATGAAAGGAAAAA [CACACA_site1455] | 9.26
